The other results are listed elsewhere or left out. Repeats are few or missing, and single values can be far off.
Key:
Experiment in all cases: cell count relative to DMSO control; melanoma cells; higher = more viable cells
Details in all cases: library dose: standard library concentration; 72 h
SkMel28 = tested on: SkMel28
SkMel2 = tested on: SkMel2
SkMel30 = tested on: SkMel30
SkMel5 = tested on: SkMel5
UACC257 = tested on: UACC257
UACC62 = tested on: UACC62
WM115 = tested on: WM115
WM1716 = tested on: WM1716
WM3526 = tested on: WM3526
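Also: cells treated in 1,536-well plates, then fixed and DAPI-stained, with nuclei counted from automated high-throughput microscope images.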

| Compound | cell count (SkMel28) [%] | cell count (SkMel2) [%] | cell count (SkMel30) [%] | cell count (SkMel5) [%] | cell count (UACC257) [%] | cell count (UACC62) [%] | cell count (WM115) [%] | cell count (WM1716) [%] | cell count (WM3526) [%] |
| --- | --- | --- | --- | --- | --- | --- | --- | --- | --- |
| CN1CCN(c2ccc3nc(-c4c(N)c5c(F)cccc5[nH]c4=O)[nH]c3c2)CC1 [Dovitinib] + c1cc(-c2cnn3cc(-c4ccc(OCCN5CCCCC5)cc4)cnc23)ccn1 [Dorsomorphin] (first compound 0.5 µM, partner dose 2 µM) | 41.4 | 54.5 | 92.5 | 56.2 | 69.1 | 71.8 | 53.1 | 54.2 | 71.9 |
| CS(=O)(=O)CCNCc1ccc(-c2ccc3ncnc(Nc4ccc(OCc5cccc(F)c5)c(Cl)c4)c3c2)o1 [lapatinib] + Cn1cc(/C=C2\C(=O)Nc3cccnc32)c2ccccc21 [GW441756] (first compound 4 µM, partner dose 2 µM) | 59.4 | 99.1 | 85.5 | 54.1 | 95.4 | 50.3 | 89.9 | 77.7 | 79.7 |
| C[C@@H](Oc1cc(-c2cnn(C3CCNCC3)c2)cnc1N)c1c(Cl)ccc(F)c1Cl [Crizotinib] + COC(=O)c1sccc1S(=O)(=O)Nc1ccc(Nc2ccccc2)cc1OC [GSK0660] (first compound 1 µM, partner dose 5 µM) | 56 | 79.4 | 92.2 | 56.2 | 75.8 | 78.8 | 74.1 | 84.6 | 78.1 |
| C[C@@H](Oc1cc(-c2cnn(C3CCNCC3)c2)cnc1N)c1c(Cl)ccc(F)c1Cl [Crizotinib] + CCc1ccc(CCOc2ccc(CC3SC(=O)NC3=O)cc2)nc1 [pioglitazone] (first compound 1 µM, partner dose 10 µM) | 58.9 | 85.1 | 113 | 83.3 | 85.6 | 81.3 | 61.1 | 82.3 | 89.7 |
| CN1CCN(c2ccc3nc(-c4c(N)c5c(F)cccc5[nH]c4=O)[nH]c3c2)CC1 [Dovitinib] + COC(=O)c1sccc1S(=O)(=O)Nc1ccc(Nc2ccccc2)cc1OC [GSK0660] (first compound 0.5 µM, partner dose 5 µM) | 59 | 80 | 75 | 62.7 | 70.7 | 93.7 | 78.9 | 96 | 78.7 |
| CN1CCN(c2ccc3nc(-c4c(N)c5c(F)cccc5[nH]c4=O)[nH]c3c2)CC1 [Dovitinib] + COc1ccc2c(c1)CCC1C2CCC2(C)C(NCCCCCCN3C(=O)C=CC3=O)CCC12 [U73122] (first compound 0.5 µM, partner dose 2 µM) | 74.8 | 83.2 | 43.4 | 59.5 | 91.2 | 90.4 | 94.1 | 82.4 | 80.7 |
| CS(=O)(=O)CCNCc1ccc(-c2ccc3ncnc(Nc4ccc(OCc5cccc(F)c5)c(Cl)c4)c3c2)o1 [lapatinib] + COc1ccc(-c2ccc3c(N4CCOCC4)nc(N4C[C@@H](C)O[C@@H](C)C4)nc3n2)cc1CO [KU0063794] (first compound 4 µM, partner dose 0.1 µM) | 71.7 | 67.9 | 110 | 50.6 | 105 | 80.1 | 94 | 87.5 | 77 |
| C[C@@H](Oc1cc(-c2cnn(C3CCNCC3)c2)cnc1N)c1c(Cl)ccc(F)c1Cl [Crizotinib] + COc1ccc2c(c1)CCC1C2CCC2(C)C(NCCCCCCN3C(=O)C=CC3=O)CCC12 [U73122] (first compound 1 µM, partner dose 2 µM) | 124 | 87.1 | 115 | 93.1 | 77.7 | 77.7 | 125 | 86.4 | 86.4 |
| CN1CCN(c2ccc3nc(-c4c(N)c5c(F)cccc5[nH]c4=O)[nH]c3c2)CC1 [Dovitinib] + O=C(Nc1ccccc1)c1cc([N+](=O)[O-])ccc1Cl [GW9662] (first compound 0.5 µM, partner dose 10 µM) | 38 | 63 | 88.1 | 51.9 | 91 | 69.9 | 55.6 | 80.2 | 80.6 |
| C[C@@H](Oc1cc(-c2cnn(C3CCNCC3)c2)cnc1N)c1c(Cl)ccc(F)c1Cl [Crizotinib] + c1cc(-c2cnn3cc(-c4ccc(OCCN5CCCCC5)cc4)cnc23)ccn1 [Dorsomorphin] (first compound 1 µM, partner dose 2 µM) | 48.8 | 66.7 | 94.3 | 42.8 | 65.5 | 60.2 | 34 | 52.2 | 65.8 |
| CNC(=O)c1cc(Oc2ccc(NC(=O)Nc3ccc(Cl)c(C(F)(F)F)c3)cc2)ccn1 [sorafenib] + Oc1cc(-c2nc(-c3ccccc3)[nH]c2-c2ccncc2)ccc1Cl [L779450] (first compound 2 µM, partner dose 1 µM) | 38.4 | 26 | 88.2 | 60.4 | 92.4 | 60.8 | 63.2 | 70.2 | 58.8 |
| C=CCNC1=C2C[C@@H](C)C[C@H](OC)[C@H](O)[C@@H](C)/C=C(\C)[C@H](OC(N)=O)[C@@H](OC)/C=C\C=C(/C)C(=O)NC(=CC1=O)C2=O [Tanespimycin] + Cc1cc([N+](=O)[O-])ccc1NS(=O)(=O)c1cc(Cl)ccc1Cl [FH535] (first compound 0.01 µM, partner dose 5 µM) | 68.6 | 81.7 | 92.7 | 48.3 | 81.9 | 64.8 | 39.4 | 70.4 | 78.7 |
